Measured values as given in paper PMC13541613.
The entries are a selection whose mix differs from that of the whole data set. At the low end of the ranking, values are background and their order means little.

Molecular target: ZNF721 DBD1 (UniProt Q8TF20-2)
Assay: HT-SELEX
Conditions: 20 mM HEPES pH 7, 140 mM KCl, 5 mM NaCl, 1 mM K2HPO4, 2 mM MgSO4, 100 uM EGTA, ZnSO4, 0.1% Tween20; room temperature, 1 h; high values mean tight binding; double strand, one strand shown

Sequence | binding signal (relative 10-mer count)
AGACACTGCT | 0.000183
AAAAGCTGCC | 0.0372
ACAGTGTATC | 0.000413
AAGCAGCGTC | 0.000734
AAACAGTGTC | 0.000183
AAAACAGGGT | 0.00055
AACCCTGCTT | 0.000367
AAAAAAAGAA | 0.00867
AGCAGTGTTG | 0.000596
AAAAAGCAGG | 0.000734
GCCACCCCAC | 0.00472
AACAGTGTTG | 0.000688
CCACCCCCCC | 0.0122
CCTCCTCCCC | 0.00881
AGCATACCCA | 0.0246
ACAGTGTTGC | 0.000321
AAAACAGCAC | 0.000459
CGCTGTTTTA | 0.000321
AAAAACAGGG | 0.000596

Sequence | binding signal (relative 10-mer count)
ACCAAAAAAA | 0.00904
AGGATACACT | 0.0907
GAAAAACAGC | 0.000413
AAAAGCAGTA | 0.0204
CAAAGCAGCG | 0.000505
AAAAGCTGCA | 0.0533
ACAGCATACC | 0.000688
AAACAGCACT | 0.000183
AAAAAAAGAG | 0.00949
AAAAGCAGGG | 0.000459
AACAGCGTCT | 0.000367
CCAAAAAAAA | 0.0171
AACACTGCTT | 0.000505
ACAGCATGAC | 0.000321
CCACCCAGCC | 0.00294
AAAAACAGCG | 0.000505
GCAACACTGC | 0.000229
AAAAAACAGA | 0.000596
CCAGCCCACC | 0.00353
